Test results from PubChem BioAssay AID493208 (National Center for Advancing Translational Sciences (NCATS), 2011).
Among all 44,000 compounds or so, about 340 (0.77%) were called active. About 5% were inconclusive and are not listed. Calls follow the shape of the dose curve; as a rule, active = well fitted inhibition curve with a large enough effect; inconclusive = small, poorly fitted or top-dose-only effect; inactive = flat fitted curve, though single readings scatter. The list shows a part of the results.

Experiment: Acumen qHTS Assay for Inhibitors of the mTORC1 Signaling Pathway in MEF (Tsc2-/-, p53-/-) Cells: Sytravon;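 also: plate controls were DMSO for no effect and rapamycin for full effect; nearly all actives have a fitted effect of over 50% in size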
Conditions: phospho-rpS6 immunofluorescence/PI, 24 h; series mostly up to 38.3 µM; activity change, negative = inhibition: at the top concentration
How it was run: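 Compounds act on Tsc2-/-, p53-/- fibroblasts carrying an empty vector for 24 h before fixation and dual staining for phospho-S6 and DNA (propidium iodide). Values are percentages of cells above a rapamycin-defined pS6/PI threshold.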

Activity change, negative = inhibition, inactive:
CC(=O)Nc1cc(C(=O)NCc2ccc(C)cc2)ccc1S(=O)(=O)c1ccc(Cl)cc1 13.3%
CCOC(=O)CN1C(C(=O)c2ccccc2)=C(OC(=O)C(C)(C)C)c2ccccc2S1(=O)=O -3.58%
Cc1cc(C)n(-c2nc3cc(Cl)ccc3nc2Nc2ccc(C)c(F)c2)n1 -0.266%
CCn1ccc2cc(S(=O)(=O)N3CCC(C(=O)NCc4cccc(Cl)c4)CC3)ccc21 0%
Cc1cccc(-n2ncc(C(=O)N3CCN(Cc4ccccc4)CC3)c2C2CCN(C(=O)OC(C)(C)C)CC2)c1 -25.7%
CCOc1ccc(N(C)S(=O)(=O)c2c(C(=O)N3CCC(C)CC3)c(C)n(C)c2C)cc1 0%
COc1ccc(Cn2c(CCC(=O)Nc3ccc(C)cc3)nc3cccnc32)cc1 -10%
Cc1ccc(NC(=O)Cn2nnc3sc4c(c3c2=O)CCC(C)C4)cc1 (stereo not drawn) 4.02%
CCOc1ccccc1NC(=O)N1c2ccccc2Sc2ccccc21 -9.54%
COc1ccc(Nc2cc(C(=O)NCc3cccs3)c3ccccc3n2)cc1 5.84%
O=C(CCCCn1c(=O)c2ccccc2n(CC(=O)Nc2ccc(F)cc2F)c1=O)NCc1ccccc1Cl -1.73%
O=C(CSc1ncc(-c2ccccc2)[nH]1)Nc1ccc(F)cc1F -38.8%
CCCCOC(=O)Cn1nnc2sc(-c3ccccc3)cc2c1=O -6.07%
CN1CCN(C(=O)C(=O)Nc2c3c(nn2-c2cccc(Cl)c2)CSC3)CC1 -0.836%
CCOC(=O)c1c(C)[nH]c(C)c1S(=O)(=O)N1CCCC(C(=O)NCc2ccc(C)cc2)C1 (stereo not drawn) -1.71%
Cc1ccc(Cn2c(=O)n(CCc3ccccc3)c(=O)c3c(C)c(C)sc32)cc1 -1.2%
CCc1ccccc1N1C(=O)N(CC(=O)c2ccc(Cl)cc2)c2ccccc2S1(=O)=O -5.57%
COC(=O)c1c(SC)nc2ccccc2c1OCc1ccc(C)cc1 -2.63%
CCOC(=O)Cn1c(=O)oc2cc(S(=O)(=O)N3CCCC(C)C3)ccc21 (stereo not drawn) -0.679%
O=C(NCc1ccc(Cl)cc1)c1ccc2oc(=O)n(Cc3ccccc3)c2c1 -0.338%
CCOC(=O)c1cc(S(=O)(=O)N2CCN(c3cccc(OC)c3)CC2)[nH]n1 -0.419%
CCCCn1cc(S(=O)(=O)c2ccc(Cl)cc2)c(=O)c2cc(F)c(N3CCCC(C)C3)cc21 (stereo not drawn) -2.03%
COC(=O)c1c(-c2ccc(Cl)cc2)noc1N1CCN(c2cccc(C)c2C)CC1 -18.4%
CCc1cnc2c(c1SCC(=O)Nc1ccc(OC)c(OC)c1)c(=O)n(C)c(=O)n2C -7.14%
CCOc1ccc(CNC(=O)Cn2cc3c(n2)-c2c(oc(C(=O)N4CCCC4)c2C)CC3)cc1 -9.45%
COc1cccc(CNC(=O)Cn2nc3c(cc2=O)CCCC3)c1OC -7.04%
CC1CCCN(C(=O)CCS(=O)(=O)c2cc3c(cc2Cl)NC(=O)CO3)C1 (stereo not drawn) -2.23%
O=C(CCCn1c(=O)[nH]c2ccsc2c1=O)N1CCN(c2cccc(C(F)(F)F)c2)CC1 -0.217%
Cc1cc(Cl)ccc1NC(=O)CN1C(=O)COc2ccc(S(=O)(=O)N3CCC(C)CC3)cc21 -1.46%
CCOC(=O)c1noc2ncn(Cc3cccc(C#N)c3)c(=O)c12 -0.235%
CCOc1ccc(CCNC(=O)CCCc2nnc3n(C)c(=O)c4sccc4n23)cc1OCC 3.4%
COc1ccccc1CN(Cc1ccco1)c1cnc(S(C)(=O)=O)nc1C(=O)Nc1ccccc1Cl 0.102%
CCNc1nc(NC(C)CC)nc(Oc2ccc(OCC)nn2)n1 (stereo not drawn) 5.48%
COc1ccc(NC(=O)NCc2c(-n3cccc3)sc3c2CCCC3)c(OC)c1 1.47%
CCc1cccc(C)c1NC(=O)NC1COc2ccccc2C1 (stereo not drawn) 0%
COc1ccc(OCC(=O)Nc2nc(-c3ccc(Br)cc3)ns2)cc1 0%
COc1ccc(NC(=O)CSc2nc(-c3ccc(OC)c(OC)c3)[nH]c2-c2ccc(C)cc2)cc1 0.454%
CCOC(=O)Cc1ccc(NC(=O)N(C(C)C)C2CCN(C(C)=O)CC2)cc1 2.97%
COc1ccc(NCc2cc3cc4c(cc3n(CC(=O)Nc3ccccc3)c2=O)OCO4)cc1 -8.45%
Cn1c(=O)c2c(n3c4ccccc4nc13)NC(=O)CC2c1cccc(Cl)c1 (stereo not drawn) 0.366%
COc1ccc(Cl)cc1NC(=O)Cn1nnc(C(=O)NCc2ccc3c(c2)OCO3)c1N -0.352%
COC(=O)c1sccc1S(=O)(=O)N1CCN(c2ccc(C(C)=O)cc2)CC1 -0.249%
Cc1ccc(Cn2c(CN3CCC(C(=O)NCC(C)c4ccccc4)CC3)cc3ccccc32)cc1 (stereo not drawn) -19.1%
CCOC(=O)c1c(NC(=O)CSc2cn(CCNC(=O)c3c(F)cccc3F)c3ccccc23)sc2c1CCCC2 -2.13%
CCOCCc1nn2c(=O)cc(COC(=O)c3cccc(C)c3)nc2s1 -3.6%
Cc1ccc(-c2cc(C(=O)Nc3c(C(=O)c4ccc(C)c(F)c4)oc4ccccc34)no2)cc1 -3.24%
Cc1ccc(C)c(N2CCN(C(=O)C3CCCN(S(=O)(=O)c4cccc5nonc45)C3)CC2)c1 (stereo not drawn) -8.87%
COc1ccc(S(=O)(=O)NCCc2sc(-c3ccccc3)nc2C)cc1F -9.24%
Cc1ccc(Cl)cc1N1CCN(S(=O)(=O)c2ccc(-c3cnc(C4CC4)o3)cc2)CC1 0.93%
CC(=O)c1ccc(NC(=O)c2cc(C3CC3)nc3c2c(C)nn3-c2ccc(C)cc2)cc1 -2.52%
COc1ccc(C(=O)N2CCN(C(=O)COc3ccc(C)cc3)CC2)cc1OC 1.46%
CC(C)c1ccc(NC(=O)CN2C(=O)CCc3cc(S(=O)(=O)N4CCOCC4)ccc32)cc1 23.1%
O=C(Nc1ccccc1F)C(Cc1ccccc1)N1Cc2ccccc2C1=O (stereo not drawn) 1.85%
O=C(Cn1cc(S(=O)(=O)N2CCN(c3ccccc3F)CC2)c2ccccc2c1=O)Nc1ccc(F)cc1Cl -19%
COc1ccc(S(=O)(=O)NCCc2sc(-c3cccc(F)c3)nc2C)cc1 3.85%
COc1cc2c(C(=O)N3CCN(c4cc(Cl)ccc4C)CC3)cn(CC(C)C)c(=O)c2cc1OC 8.44%
CCCOc1ccc(-c2cccc(NS(=O)(=O)c3ccc(CC)cc3)c2)nn1 1.52%
COc1ccc(NC(=O)CN2CCN(c3ccccc3F)CC2)c(OC)c1 0.333%
Cc1cc(C)c(NC(=O)CN(C)S(=O)(=O)c2ccc3c(c2)c(=O)n(C)c(=O)n3C)c(C)c1 -0.821%
CCC1=C(c2ccc(C)cc2)S(=O)(=O)N=C1N1CCC(C(=O)NCc2ccc(C)cc2)CC1 -0.309%
Cc1ccc(NC(=O)CSc2nccn2Cc2ccc3c(c2)OCO3)c(C)c1 1.97%
CCC(C)NC(=O)CCC(=O)NNc1nc2ccccc2c2nc(C)nn12 (stereo not drawn) 2.02%
CCCSCCCNC(=O)CN1C(=O)CCn2nc(-c3cn(C)c4ccccc34)cc21 0.458%
COc1cc(NS(=O)(=O)c2ccc(NC(=O)c3ccc(OC)c(Br)c3)cc2)nc(OC)n1 8.75%
Cc1ccc(-c2nn3c(=O)cc(CN4CCN(C(=O)c5ccc(C(C)(C)C)cc5)CC4)nc3s2)cc1 2.67%
COCCn1c(=NC(=O)c2ccc3c(c2)OCCO3)sc2cc(NC(C)=O)ccc21 1.4%
CCc1ccc(S(=O)(=O)n2ccnc2)cc1 0%
O=C(Nc1ccc(F)cc1F)N1CCc2c(sc3c2CCCC3)C1c1ccc(F)cc1 (stereo not drawn) 0%
COc1ccc(-c2nc3sc(CCNS(=O)(=O)c4c(C)cc(C)cc4C)c(C)n3n2)cc1 0.206%
COc1cc(Cl)c(C)cc1Nc1nnc(-n2nc(C)cc2C)c2ccccc12 0%
CCc1cccc(NC(=O)C(Cc2ccccc2)NS(=O)(=O)c2ccc3c(c2)c(=O)n(C)c(=O)n3C)c1 (stereo not drawn) -6.72%
Cc1cc(SCC(=O)Nc2nsc(-c3ccc(C(C)(C)C)cc3)n2)nc2ccccc12 -11.8%
COc1cccc(N2CCN(C(=O)c3c4c(nc5ccccc35)C(=O)N(C3CCCCC3)C4)CC2)c1 4.97%
COc1cccc(NC(=O)C2CCCN2S(=O)(=O)c2ccc3nc(-c4ccccc4)[nH]c3c2)c1 (stereo not drawn) -3.94%
COc1ccc(OCc2nc(C#N)c(NCc3ccccc3Cl)o2)cc1 -14.1%
CC(=O)Nc1cccc(NC(=O)Cc2csc(COc3cccc(C)c3)n2)c1 -0.687%
CCOC(=O)N1CCc2c(sc3c2c(=O)n(-c2ccc(CC)cc2)c(=O)n3Cc2cccc(OC)c2)C1 1.81%
CCOc1ccc(C(=O)Nc2ccc3c(c2)N(C(C)=O)CCC3)cc1OCC 22.9%
CCc1ccc(S(=O)(=O)N(C(C)=O)c2ccc3oc4c(c3c2)CCCC4)cc1 -16.3%
CCC(C(=O)Nc1cc(C)ccc1OC)n1nnc(C(=O)OC)c1C(=O)OC (stereo not drawn) 5.86%
CCOc1ccc(C2c3c(oc4cc(C)c(C)cc4c3=O)C(=O)N2c2ccccn2)cc1 (stereo not drawn) -0.551%
COc1ccc(NS(=O)(=O)c2ccc3c(c2)NC(=O)CCS3)c(OC)c1 -14.2%
Cc1ccc(-n2nc3c(N4CCC(C(=O)N(C)Cc5ccccc5)CC4)nnc(C)c3c2C)cc1 -0.65%
Cc1ccc(C)c(S(=O)(=O)n2nc(C)c(S(=O)(=O)N3CCC(C)CC3)c2C)c1 -1.83%
CC(=O)Nc1ccc(S(=O)(=O)Nc2nc3n(n2)C(c2ccccc2)C=C(c2ccc(Cl)cc2)N3)cc1 (stereo not drawn) -0.133%
O=C(NCCN1CCCCC1)c1ccc(Cn2c(SCc3ccc(F)cc3)nc3cccnc32)cc1 -9.67%
CN(C)c1ccc(CN(Cc2ccco2)C(=O)c2ccc(F)cc2)cc1 -13.1%
COc1ccccc1CNC(=O)CCC(=O)N1Cc2ccccc2Oc2ncccc21 -0.0545%
Cc1oc(-c2ccccc2Cl)nc1CS(=O)(=O)CC(=O)NC(C)CCc1ccccc1 (stereo not drawn) 6.21%
COc1ccc(C(=O)Nc2nc3nc(C)c(Cl)c(=O)n3[nH]2)cc1 -1.1%
Cc1ccc2nc(Cl)c3cc(C(=O)NC4CCCCC4)sc3c2c1 -19.6%
COc1ccc(OC)c(NC(=O)C(NS(=O)(=O)c2ccc3c(c2)CCCC(=O)N3)C(C)C)c1 (stereo not drawn) 0.253%
COc1ccc(NC(=O)CC2C(=O)N(c3cccc(OC)c3)C(=O)N2Cc2cccnc2)cc1 (stereo not drawn) 0.542%
